Results from PubChem BioAssay AID686978 (National Center for Advancing Translational Sciences (NCATS), 2013).
The campaign covered roughly 420,000 compounds. About 64,000 (15%) were called active. The shares of active, inactive and inconclusive entries below differ from those in the screen. The call rests on the fitted dose curve; in most records, active means well fitted inhibition curve with a large enough effect; inconclusive means small, poorly fitted or top-dose-only effect; inactive means flat fitted curve, though single readings scatter. No potency is given beside an inconclusive call; the fits are too rough.
On the % scale 0 is the no-effect control and ±100 the full control effect; potency means the concentration at half of the fitted maximal effect; tags describe the fitted curve by direction and shape.

Assay: qHTS for Inhibitors of human tyrosyl-DNA phosphodiesterase 1 (TDP1): qHTS in cells in absence of CPT; further: nearly all actives have a fitted effect of over 55% in size
Conditions: DT40 Tdp1-/- hTDP1 cells, no CPT, ATP luminescence, 48 h; activity change, negative = growth inhibition: at 46.2 µM (top of the series) unless noted
In short: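 A cellular qHTS used chicken DT40 cells lacking endogenous Tdp1 but carrying stably transfected human TDP1. Compounds were applied without camptothecin, and cell growth kinetics were judged by ATP-dependent luminescence after ≥48 hr.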
With CCCCC(CC)CNC(=O)c1ccc2c(=O)n(CCOC)c(=O)[nH]c2c1 (centres undefined) the activity change, negative = growth inhibition was inconclusive: -32.2% [inhibitor].
With CC1CCN(S(=O)(=O)c2ccc(NC(=O)C3CSC4(C)CCC(=O)N34)cc2)CC1 (centres undefined) the Potency was active: 10.3 µM.
In the case of COC(=O)c1sc(S(=O)(=O)N2CCC(C(N)=O)CC2)c(C(=O)OC)c1C, the “activity change, negative = growth inhibition” value is reported as inactive: -10.2%.
For CCC(C)C(NC(=O)c1ccccc1NC(=O)c1ccco1)C(=O)NC1CCCCC1 (centres undefined), the Potency was inconclusive [inhibitor, single point].
With O=C(NCC(c1cccnc1)N1CCN(c2ccccc2)CC1)OCc1ccccc1 (centres undefined) the Potency was inconclusive [inhibitor, single point].
With CN(C(=O)c1ccc2ccccc2c1)c1ccccn1 the Potency was inconclusive [inhibitor, single point].
With Cc1ccc(OCCSc2nc3ncnc(N)c3[nH]2)cc1 the Potency was inconclusive [inhibitor, single point].
With CCCCn1c(N)c(N(CCOC)C(=O)c2cc(-c3ccc(OC)cc3)nc3ccccc23)c(=O)[nH]c1=O the “activity change, negative = growth inhibition” value was inactive: 0.122%.
With O=C(COc1cccc2cccnc12)Nc1nccs1 the “activity change, negative = growth inhibition” value was inactive: -12.7%.
For CSc1ncccc1C(=O)OCC(=O)C(C)(C)C, the “activity change, negative = growth inhibition” value was inactive: 11.1%.
With O=C(CCC1CCCC1)NCCS(=O)(=O)N1CCN(c2ccccc2F)CC1 the Potency was active: 14.6 µM.
With Cc1ccc(C(=O)OCC(=O)NC2CC2)cc1S(=O)(=O)N1CCOCC1 the “activity change, negative = growth inhibition” value was inactive: 22.8%.
In the case of C=CCOC(=O)Nc1nc(CCNC(=O)OCc2ccccc2)c(C(=O)O)s1, the “activity change, negative = growth inhibition” value is reported as inactive: 1.43%.
In the case of CCCCn1c(N)c(N(CC(C)C)C(=O)c2cc(C)oc2C)c(=O)[nH]c1=O, the “activity change, negative = growth inhibition” value is reported as inactive: -13%.
In the case of CCOCCCNC(=S)N(CCN(CC)CC)Cc1cc2cc3c(cc2[nH]c1=O)OCCO3, the Potency is reported as inconclusive [inhibitor, partial curve].
For COc1ccccc1-n1c(C)nc2cc(C(=O)NCc3ccc4c(c3)OCO4)ccc21, the Potency was inconclusive [inhibitor, single point].
For CC(O)CNc1nc2c(c(=O)n(Cc3ccc(Br)cc3)c(=O)n2C)n1C (centres undefined), the Potency was inconclusive [inhibitor, partial curve].
In the case of COc1ccc(C)cc1NC(=O)COCc1cc(-c2cccs2)on1, the Potency is reported as inconclusive [inhibitor, partial curve].
For Cc1ccc(C)c(S(=O)(=O)Nc2ccc(C(N)=O)cc2)c1, the “activity change, negative = growth inhibition” value was inactive: -17.8%.
With CC(C)C(OC(=O)c1cccs1)C(=O)NCc1cccs1 (centres undefined) the Potency was inconclusive [inhibitor, single point].
In the case of COc1ccc(CN2CCNC(=O)C2CC(=O)NCCCn2cccn2)c(OC)c1 (centres undefined), the “activity change, negative = growth inhibition” value is reported as inactive: -1.92%.
In the case of CCc1nc2ccc(C(=O)NCc3cccs3)cn2c1N(CC)CCOC, the Potency is reported as inconclusive [inhibitor, single point].
In the case of CCCCn1c(N)c(N(CCOC)C(=O)CN(C)CC(=O)Nc2ccc(Cl)c(Cl)c2)c(=O)[nH]c1=O, the Potency is reported as inconclusive [inhibitor, partial curve].
With COc1cccc(C(=O)NCCCNC(=O)c2cccc(OC)c2)c1 the “activity change, negative = growth inhibition” value was inactive: -18.3%.
With CCOc1cccc(CN2CCC(n3nccc3NC(=O)C3CCCC3)CC2)c1 the Potency was inconclusive [inhibitor, single point].
In the case of O=C(CCS(=O)(=O)c1cc(Br)cc2c1N(C(=O)C1CC1)CC2)N1CCN(c2ccc(F)cc2)CC1, the Potency is reported as inconclusive [inhibitor, single point].
With CNC(=O)CSc1nnnn1-c1cc(C)ccc1C the activity change, negative = growth inhibition was inconclusive: -30.4% [inhibitor].
For COc1cc(C2c3c(oc4ccc(F)cc4c3=O)C(=O)N2c2nc(C)c(C)s2)cc(OC)c1OC (centres undefined), the “activity change, negative = growth inhibition” value was inactive: -0.828%.
With COc1ccc(N2CC(C)(C)[C@H](CC(=O)Nc3ccccc3)C2=O)cc1 the “activity change, negative = growth inhibition” value was inactive: 8.05%.
In the case of Cc1ccc(OCC(=O)Sc2ccc(C)cc2)cc1, the Potency is reported as inconclusive [inhibitor, partial curve, poor fit].
In the case of Cc1cc(/C=C2/C(=O)N(C)C(=S)N2C)ccc1N1CCCC1, the Potency is reported as inconclusive [inhibitor, single point].
For Cc1c(C(=O)N2CCCCC2)nn(-c2ccc(Cl)cc2)c(=O)c1C#N, the “activity change, negative = growth inhibition” value was inactive: 14.2%.
With O=C1NC(=Nc2ccccc2)S/C1=C\c1cccn1-c1ccccc1 the Potency was active: 20.6 µM.
For O=C(COc1ccc2ccccc2c1)Nc1cccc(C(=O)Nc2ccccc2C(=O)O)c1, the Potency was inconclusive [inhibitor, single point].
In the case of CN(Cc1ccccc1)C(=O)C1CCCN(Cc2ccc(Cl)cc2)C1 (centres undefined), the Potency is reported as active: 25.9 µM.
With CC1CC(=O)N(C)c2ccc([N+](=O)[O-])cc2N1 (centres undefined) the “activity change, negative = growth inhibition” value was inactive: -1.08%.
In the case of CC(=O)c1c(C)[nH]c(C(=O)COC(=O)CCOc2ccc(C)cc2)c1C, the Potency is reported as inconclusive [inhibitor, single point].
With CN(Cc1ccno1)C(=O)CC1C(=O)NCCN1CC(c1ccccc1)c1ccccc1 (centres undefined) the “activity change, negative = growth inhibition” value was inactive: -24.7%.
For COc1ccc(-n2c(SCCNCCO)nc3sc4c(c3c2=O)CCCC4)cc1, the Potency was inconclusive [inhibitor, partial curve, poor fit].
For Cc1cc(C)cc(OCC(=O)OCC(=O)Nc2cc(S(=O)(=O)N3CCOCC3)ccc2Cl)c1, the “activity change, negative = growth inhibition” value was inactive: -7.33%.
With COc1ccc(CCNC(=O)CCCn2c(=O)c3ccccc3n(Cc3ccc(C)cc3)c2=O)cc1OC the Potency was inconclusive [inhibitor, single point].
For O=S(=O)(/N=C(\Sc1ccccc1)c1ccccc1)c1ccc(Cl)cc1, the Potency was active: 11.2 µM.
For Cc1cc2cc(C#N)c(N3CCOCC3)nc2cc1Cl, the Potency was inconclusive [inhibitor, single point].
In the case of CSCC[C@H](NC(=O)OC(C)(C)C)C(=O)N/N=C/c1cccc2nccnc12, the Potency is reported as inconclusive [inhibitor, single point].
With COc1ccc(CCNC(=O)COc2ccc(S(=O)(=O)NCC(C)C)cc2Cl)cc1OC the Potency was inconclusive [inhibitor, single point].
For CN1CCN(C(=O)CSc2nc(-c3cccs3)cc(-c3cccs3)c2C#N)CC1, the Potency was active: 18.4 µM.
With Cc1ncc([N+](=O)[O-])n1Cc1ccc(F)cc1 the Potency was inconclusive [inhibitor, single point].
For CCN(CC)C(=O)CSC1=Nc2ccccc2C2=NC(Cc3c[nH]c4ccccc34)C(=O)N12 (centres undefined), the Potency was inconclusive [inhibitor, partial curve].
For CCOC(=O)C1(C)CCCN(C(=O)c2cccnc2)C1 (centres undefined), the “activity change, negative = growth inhibition” value was inactive: 17.5%.
With COc1ccc(C(=O)NC(=C(Cl)Cl)S(=O)(=O)c2ccc(C)cc2)cc1 the Potency was inconclusive [inhibitor, single point].
With COc1cc(C(=O)Oc2ccccc2/C=N/NC(=O)c2ccc(C)c(Cl)c2)cc(OC)c1OC the Potency was active: 0.92 µM.
In the case of Oc1c(Br)cc(Br)cc1/C=N/c1nccs1, the Potency is reported as active: 18.4 µM.
With COc1ccccc1OCCn1c(COc2cc(C)ccc2C)nc2ccccc21 the Potency was inconclusive [inhibitor, partial curve, poor fit].
With O=C(COC(=O)c1ccc(O)cc1)NC1CCCCCCC1 the Potency was inconclusive [inhibitor, full curve].
For O=C(c1csc(Nc2ccccc2Cl)n1)N1CCCC1, the Potency was inconclusive [inhibitor, single point].
For Cc1nn2c(C)c(C(=O)N3CCN(c4ccccc4)CC3)cnc2c1-c1ccccc1, the Potency was inconclusive [inhibitor, single point].
For O=C1CC(NC(=O)C(F)(F)F)c2cc3c(cc21)OCO3 (centres undefined), the “activity change, negative = growth inhibition” value was inactive: 0.94%.
For O=C(c1cc(Cl)cc(Cl)c1)N1CCOCC1, the “activity change, negative = growth inhibition” value was inactive: -0.939%.
For CCOc1ccccc1Nc1sc(C(=O)c2ccccc2)c(N)c1C(=O)NCCc1ccccc1, the Potency was inconclusive [inhibitor, single point].
With O=C(C=Cc1cccs1)c1cccs1 the Potency was active: 25.9 µM.
With CC(=O)NC(C)c1nc2ccccc2n1Cc1ccccc1F (centres undefined) the Potency was inconclusive [inhibitor, single point].
For COc1cccc(CNC(=O)CNS(=O)(=O)c2ccc3nc(C)sc3c2)c1, the Potency was active: 14.6 µM.
For COc1ccc(C(=O)NC(C)c2nccs2)cc1OC1CCN(C(C)C)CC1 (centres undefined), the “activity change, negative = growth inhibition” value was inactive: 13.2%.
With CCC1C(=NO)C(CC)C(c2ccccc2)NC1c1ccccc1 (centres undefined) the Potency was inconclusive [inhibitor, single point].
With Cc1ccc(-c2nnc(-c3cccs3)o2)cc1 the Potency was inconclusive [inhibitor, single point].
In the case of O=S1(=O)N[C@H](Cc2ccccc2)COc2cc(N3CCSCC3)ccc21, the “activity change, negative = growth inhibition” value is reported as inactive: -19.8%.
In the case of COc1ccc(OC)c(CN2CCN(C(=O)c3ccc(S(=O)(=O)N4CCCCCC4)cc3)CC2)c1, the Potency is reported as active: 20.6 µM.
For COc1cc(NC(=O)CSc2nc3ccccc3nc2Cc2ccccc2OC)cc(OC)c1, the Potency was inconclusive [inhibitor, single point].
With CCN1CCN(c2ccc(S(=O)(=O)N3CCCCC3)cc2NC(=O)c2ccccc2)CC1 the Potency was inconclusive [inhibitor, single point].
For O=C(CCNC(=O)c1ccc(Cl)cc1)Nc1ccncc1, the “activity change, negative = growth inhibition” value was inactive: -15.5%.
For O=C(NNC(=O)C1CCN(Cc2cccc(F)c2)CC1)c1cccc(Cl)c1, the Potency was inconclusive [inhibitor, partial curve].
In the case of COc1ccc(CN(C(=O)c2cc(=O)c3cc(C)cc(C)c3o2)C2CCS(=O)(=O)C2)cc1 (centres undefined), the Potency is reported as inconclusive [inhibitor, partial curve].
For CCCC(=O)NC1=C(C#N)C2(CCCCC2)Cc2ccccc21, the “activity change, negative = growth inhibition” value was inactive: -28.6%.
In the case of COc1cc(OC)cc(C(=O)Nc2ccc3oc(-c4ccccc4C)nc3c2)c1, the Potency is reported as inconclusive [inhibitor, single point].
